Data reported in the supplement of paper PMC12217912.
The other results are listed elsewhere or left out. Sequences were assembled here from the parent chain. Values near 0.05 are background.

B1: TEV protease; numbered along this chain (parent)
chain: MGESLFKGPRDYNPISSSICHLTNESDGHTTSLYGIGFGPFIITNKHLFRRNNGTLVVQSLHGVFKVKDTTTLQQHLVDGRDMIIIRMPKDFPPFPQKLKFREPQREERICLVTTNFQTKSMSSMVSDTSCTFPSGDGIFWKHWIQTKDGQCGSPLVSTRDGFIVGIHSASNFTNTNNYFTSVPKNFMELLTNQEAQQWVSGWRLNADSVLWGGHKVFMVKPEEPFQPVKEATQL

Variants of: B1
Assay: raw area under fraction-flipped curve 0-4 h after induction (AUC4h, not background-subtracted), DNA-recorder readout of cleavage of the substrate (dimensionless); higher = more cleavage of the substrate by the protease variant
Conditions: temperature: 34 °C; time window: 0-4 h after rhamnose induction
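Also: Bxb1 expression induced with 0.2% (w/v) L-rhamnose at OD600 near 0.5, cultures sampled hourly, flipped fraction per protease–substrate barcode pair counted by paired-end Illumina sequencing.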

Row | Variant | area with substrate DNLYFQS | area with substrate KNLYFQS | area with substrate LNLYFQS | area with substrate MNLYFQS | area with substrate RNLYFQS | area with substrate SNLYFQS | area with substrate TNLYFQS | area with substrate VNLYFQS | area with substrate WNLYFQS | area with substrate FNLYFQS
1 | E231Y | 0.0756 | 0.0518 | 0.06 | 0.0565 | 0.0716 | 0.0643 | 0.0353 | 0.0605 | 0.121 | 
2 | T233I | 0.0797 |  | 0.075 | 0.0699 |  |  | 0.0581 |  |  | 0.043
3 | T233V | 0.0704 | 0.0553 | 0.072 |  |  |  |  | 0.0613 |  | 
4 | L235D | 0.0899 |  |  |  | 0.0622 |  | 0.095 |  |  | 0.0541
5 | L235R | 0.086 | 0.0475 |  |  |  | 0.05 |  |  |  | 
6 | L235V | 0.0911 |  |  | 0.0844 |  | 0.0715 | 0.0618 |  | 0.0616 | 
7 | G2V |  | 0.105 |  |  |  |  |  | 0.0648 |  | 0.0631
8 | L5G |  | 0.0777 | 0.0844 | 0.0728 | 0.0944 | 0.0503 |  | 0.0696 | 0.0563 | 0.0456
9 | F6L |  |  |  | 0.0585 |  | 0.0057 | 0.0534 |  | 0.0594 | 0.0575
10 | K7M |  | 0.0648 |  |  |  | 0.069 | 0.0735 |  |  | 0.0611
11 | C20I |  | 0.0677 |  | 0.0898 |  |  | 0.0616 | 0.0787 | 0.0611 | 0.057
12 | D27H |  |  | 0.0735 |  |  |  |  |  |  | 0.0407
13 | Y34D |  | 0.0551 |  | 0.0611 |  |  | 0.0771 |  | 0.0495 | 0.0749
14 | F41E |  |  | 0.0524 |  | 0.0597 | 0.0527 |  | 0.0595 |  | 0.043
15 | F49T |  |  | 0.057 |  | 0.0485 | 0.0439 | 0.0503 |  | 0.0568 | 0.0546
16 | R50T |  |  | 0.0651 | 0.0786 |  | 0.0634 | 0.0635 | 0.0737 | 0.0642 | 0.107
17 | N53H |  | 0.0684 | 0.0714 |  |  | 0.0664 | 0.0538 |  | 0.0685 | 0.0675
18 | L56N |  | 0.0367 |  |  |  |  | 0.0557 |  | 0.0514 | 0.0391
19 | V58Y |  |  | 0.0486 | 0.057 | 0.0544 | 0.0437 | 0.028 | 0.059 | 0.0406 | 0.0437

Row | Variant | area with substrate DNLYFQS | area with substrate KNLYFQS | area with substrate LNLYFQS | area with substrate MNLYFQS | area with substrate RNLYFQS | area with substrate SNLYFQS | area with substrate TNLYFQS | area with substrate VNLYFQS | area with substrate WNLYFQS | area with substrate FNLYFQS
20 | Q59W |  | 0.0517 |  |  |  | 0.0608 | 0.0752 |  | 0.0794 | 0.0628
21 | S60I |  |  |  | 0.0634 |  |  |  |  | 0.0503 | 0.0486
22 | S60N |  | 0.0694 |  | 0.0735 |  |  | 0.0555 | 0.057 | 0.0833 | 0.0544
23 | H62P |  |  | 0.0548 |  |  | 0.0665 | 0.0941 | 0.0752 | 0.0569 | 0.0611
24 | H62Q |  |  |  | 0.0862 |  |  |  |  | 0.0599 | 0.0582
25 | F65C |  | 0.0542 | 0.0589 | 0.0686 | 0.0565 | 0.0641 | 0.067 | 0.0639 | 0.0487 | 0.0536
26 | F65K |  | 0.0634 | 0.0668 | 0.0656 |  | 0.058 | 0.0599 |  | 0.0577 | 0.0753
27 | D69V |  | 0.0563 | 0.0413 |  |  | 0.0631 | 0.0502 | 0.0629 | 0.0556 | 0.0476
28 | Q75G |  |  | 0.0594 |  |  |  | 0.069 |  | 0.0771 | 0.0367
29 | Q75S |  |  |  | 0.0404 |  |  | 0.0674 |  |  | 0.0509
30 | Q75Y |  | 0.0508 |  |  | 0.0717 | 0.0547 |  |  | 0.0532 | 0.0577
31 | I84L |  |  | 0.062 | 0.0712 |  | 0.0625 | 0.0598 |  | 0.0558 | 0.0619
32 | I85N |  | 0.0263 | 0.0445 | 0.0635 | 0.046 | 0.0477 | 0.0445 |  |  | 0.0406
33 | R87E |  | 0.067 |  | 0.0757 |  |  |  | 0.0648 | 0.0552 | 0.0726
34 | P89D |  |  |  |  |  | 0.0449 | 0.06 |  |  | 0.0801
35 | K90T |  | 0.0741 | 0.081 | 0.0647 |  | 0.0487 | 0.066 |  |  | 0.0613
36 | D91Y |  |  | 0.0645 |  |  |  | 0.0613 |  | 0.0667 | 0.0702
37 | F95Q |  |  |  |  |  |  |  |  | 0.0477 | 0.052
38 | K98H |  | 0.0666 | 0.0599 | 0.0694 |  | 0.0645 |  | 0.0677 |  | 0.0618

Same assay, conditions: temperature: 34 °C; time window: 0-4 h after rhamnose induction

Row | Variant | area with substrate HNLYFQS | area with substrate NNLYFQS | area with substrate PNLYFQS | area with substrate YNLYFQS | area with substrate QNLYFQS | area with substrate INLYFQS | area with substrate GNLYFQS
39 | T233I | 0.0783 | 0.0555 | 0.0683 | 0.0529 |  |  | 
40 | T233V |  |  |  | 0.0738 | 0.0693 |  | 
41 | L235D |  |  | 0.068 |  |  | 0.0245 | 
42 | L235V |  | 0.0584 | 0.0578 |  |  | 0.0646 | 0.0478
43 | G2V | 0.0675 |  | 0.0734 | 0.0881 |  | 0.0462 | 0.0771
44 | L5G | 0.074 |  | 0.0723 | 0.074 |  |  | 
45 | F6L | 0.0533 |  |  | 0.0723 |  |  | 0.0605
46 | K7M | 0.0582 | 0.0671 | 0.0484 | 0.0627 |  |  | 
47 | C20I | 0.055 | 0.0672 |  | 0.0681 | 0.0169 |  | 0.0409
48 | D27H | 0.0705 | 0.0608 | 0.0758 | 0.0592 |  |  | 
49 | Y34D |  | 0.0628 | 0.0553 | 0.0668 |  | 0.035 | 
50 | F41E |  |  |  | 0.0539 |  |  | 0.0603
51 | F49T | 0.073 |  | 0.0517 | 0.0505 | 0.061 | 0.0499 | 
52 | R50T | 0.0641 | 0.0702 |  | 0.0639 |  | 0.146 | 
53 | N53H | 0.0568 | 0.0479 | 0.0667 | 0.0727 |  | 0.064 | 
54 | L56N | 0.0521 | 0.0673 |  |  |  | 0.0485 | 
55 | V58Y | 0.0545 |  | 0.052 | 0.0681 |  |  | 0.0388
56 | Q59W | 0.0546 |  | 0.0613 |  | 0.0981 | 0.0746 | 

Row | Variant | area with substrate HNLYFQS | area with substrate NNLYFQS | area with substrate PNLYFQS | area with substrate YNLYFQS | area with substrate QNLYFQS | area with substrate INLYFQS | area with substrate GNLYFQS
57 | S60I | 0.0744 |  | 0.0575 |  |  |  | 0.0504
58 | S60N |  | 0.0891 |  | 0.0581 |  | 0.0554 | 0.0741
59 | H62P | 0.0724 |  | 0.062 |  |  |  | 
60 | H62Q | 0.0707 |  | 0.0667 |  |  |  | 0.0966
61 | F65C | 0.0625 | 0.0626 |  |  |  | 0.0212 | 
62 | F65K | 0.0488 | 0.0678 |  |  |  | 0.0672 | 0.067
63 | D69V | 0.063 | 0.0583 | 0.0612 | 0.0667 |  |  | 
64 | Q75G | 0.0586 |  |  |  |  | 0.0586 | 0.0541
65 | Q75S | 0.0594 |  | 0.057 |  |  |  | 
66 | Q75Y | 0.0579 | 0.0768 | 0.0575 | 0.0476 |  |  | 
67 | I84L | 0.0598 | 0.0754 | 0.0712 | 0.0542 |  | 0.0783 | 
68 | I85N | 0.0641 | 0.0476 | 0.0555 | 0.0425 |  | 0.0428 | 0.0485
69 | R87E | 0.0609 |  | 0.0925 |  |  |  | 
70 | P89D |  |  |  | 0.063 |  |  | 
71 | K90T | 0.0587 | 0.0719 | 0.0691 | 0.0548 |  | 0.0156 | 
72 | D91Y | 0.0608 |  | 0.0739 | 0.0742 | 0.0574 |  | 0.0735
73 | F95Q | 0.0438 | 0.0263 |  | 0.0417 |  |  | 
74 | K98H | 0.0606 | 0.0691 | 0.0691 | 0.0535 | 0.0661 | 0.0661 | 
